From PMC10668032 come the findings set out here.

Some of the results follow. At the low end of the ranking the order means little.

For the test, the target named is SIX1 homeodomain (reference allele) (UniProt Q15475). Nature of the test: universal protein binding microarray. The settings on record: Universal all-10-mer PBM (8x60K, AMADID 030236), 300 nM GST-tagged protein, Alexa Fluor 488 anti-GST; buffer, salt, pH and temperature not stated; high values mean tight binding; most listed sequences are background and not binding sites; double strand, one strand shown.
With TATCAAGA, the binding signal worked out at 0.302 E-score. The result for CGAGTGTA reads 0.0016 E-score. The result for AGACTCGC reads -0.286 E-score; that for AAACAATC, -0.0138 E-score. The result for AAGACTTC reads -0.206 E-score; that for AAGCCGGC, -0.0743 E-score; that for GCGACTAC, -0.172 E-score. In the case of AGGCAGGA, the binding signal was found to be 0.109 E-score. The result for GCCGATAC reads 0.42 E-score; that for ATTTGTAC, -0.0801 E-score; that for TGACCGCA, -0.141 E-score. The result for AGTACACC reads 0.209 E-score; that for CCTTGGAG, -0.0126 E-score; that for CAGCCAGA, -0.125 E-score. Take ACCTATCT: the binding signal was found to be 0.195 E-score.

Consider ATCGGTTA, for which the binding signal was determined as 0.265 E-score. The result for CACGTTTA reads -0.163 E-score. Under AGGTGTTG stands 0.236 E-score. The result for ATAACACG reads 0.0214 E-score; that for TAACTCCA, -0.162 E-score. Consider CTGAGCAG, for which the binding signal is -0.00301 E-score. As for GAATTCGA, the binding signal was -0.088 E-score.

With TAACCACA, the binding signal was -0.162 E-score. The result for AGTCCTCC reads -0.183 E-score; that for ACAACTCA, -0.00655 E-score. Consider ATGAGCCA, for which the binding signal came to 0.173 E-score.

ACTCGAGC: the binding signal is -0.103 E-score. The result for ACAGGCAC reads -0.208 E-score; that for CAAACTAA, -0.0314 E-score; that for CCTACTGC, -0.195 E-score. The result for GCTTCCTA reads -0.129 E-score; that for ATATTGAG, 0.0845 E-score.

Take ATAGACCC: the binding signal amounted to 0.033 E-score. The result for CCAAATTA reads -0.109 E-score. Under ATTCGTCC stands -0.0292 E-score. As to GGCTACCA, the binding signal came out at 0.0377 E-score. Under CCTCCTAA stands -0.124 E-score.

GCACTCCC: the binding signal was -0.149 E-score. On to AAACTCTG, for which the binding signal was -0.237 E-score. The result for CTTCCATA reads -0.165 E-score; that for ACTGGTGA, -0.077 E-score.

On to CGATTAAA, for which the binding signal was 0.156 E-score. The result for ACATGCCA reads -0.213 E-score; that for ATTAATGC, 0.0182 E-score; that for AGGGACCG, -0.0883 E-score. The result for GGGCATAA reads -0.047 E-score. Under CTTCGAAA stands -0.23 E-score; under ATTCGCAG, -0.146 E-score; under TTGAGCAA, -0.22 E-score. For the sequence CATTCGGA, the binding signal was 0.109 E-score. Under ACGCCTTG stands -0.124 E-score; under CCCTATCC, 0.359 E-score. Consider CACCCAGC, for which the binding signal is -0.121 E-score.

For the sequence GCTACCAC, the binding signal was -0.183 E-score. The result for AGGCAATG reads 0.00178 E-score; that for CTAAGTAC, -0.0688 E-score.

As to CGAATGCG, the binding signal is -0.0164 E-score. Under ACAGTGAG stands -0.0157 E-score; under GGAGTCCC, -0.129 E-score. The result for CAATCACC reads -0.0948 E-score; that for GTATCCCA, 0.388 E-score; that for ACTGTCCG, -0.223 E-score. Under CACTACCC stands 0.09 E-score. Turning to CAGGGATA, the binding signal came out at 0.328 E-score. Under CCGAAGAC stands 0.03 E-score; under ACATTGGC, -0.255 E-score; under CCTCCTCG, 0.036 E-score.

With AGGCCCAG, the binding signal was -0.272 E-score. As for TGAACAAA, the binding signal is -0.18 E-score. The result for AAGACATC reads -0.159 E-score; that for CCGGAGAG, -0.066 E-score. The result for TCTTAAGA reads -0.0679 E-score; that for CCTCCCGA, -0.0516 E-score; that for CTGTATAC, 0.338 E-score.

Take CGGGCCAA: the binding signal was -0.0721 E-score. With CGGATTAA, the binding signal came out at 0.351 E-score.

For AGGGGGCA, the binding signal was -0.138 E-score. The result for AAGCACGC reads -0.273 E-score; that for GAGTAGAC, 0.214 E-score; that for CTGTGAAA, -0.044 E-score. For CGTGTGGC, the binding signal was -0.167 E-score. CTTATTTC: the binding signal was -0.161 E-score. Under CTTTCCCA stands -0.0878 E-score. Regarding CAGAAGCC, the binding signal is -0.134 E-score. For the sequence GTCCCGAA, the binding signal is -0.307 E-score. Regarding CATACTCA, the binding signal stood at 0.152 E-score. The result for ACAAGGGC reads -0.266 E-score. With TAATATCA, the binding signal was 0.34 E-score. Under AACATTCG stands -0.127 E-score; under ATCCTCTA, 0.244 E-score; under CCCTCGTA, 0.132 E-score. Under AAGAAAAG stands -0.254 E-score; under CGCTCCGA, 0.0143 E-score. For CTAGTCGA, the binding signal was -0.0544 E-score. Consider AACGGTAT, for which the binding signal is 0.234 E-score. Under AATTCGAT stands -0.00161 E-score; under CATGCCCG, -0.105 E-score. Under CCGTGGGC stands -0.129 E-score. Under ACACAGGT stands 0.018 E-score; under AGGTTCGC, -0.143 E-score. With TCAGTGAA, the binding signal was -0.00662 E-score.

In the case of GATTTTAC, the binding signal is -0.0191 E-score. Turning to CTGGGTAC, the binding signal turned out to be 0.037 E-score. The result for ACTTGCAG reads -0.116 E-score; that for ACAACTAA, -0.114 E-score; that for ACCCCGTA, 0.209 E-score.

Turning to AGTAGAAG, the binding signal came to 0.0361 E-score.

Regarding AGAGTTCG, the binding signal was -0.0999 E-score. Under GCTCAGAA stands -0.0514 E-score. As for CCCTGCTC, the binding signal was found to be 0.0522 E-score. As for CCGGTCTA, the binding signal worked out at 0.129 E-score. Turning to CTGAGGGA, the binding signal came out at 0.0462 E-score. The result for AACCAGAG reads -0.242 E-score; that for CAGGACCC, -0.261 E-score. The result for GGCGACAA reads -0.251 E-score. GTATACAC: the binding signal was found to be 0.371 E-score.

For the sequence AGCCAGGC, the binding signal is -0.197 E-score. The result for ATAATCCG reads 0.308 E-score; that for ATGGGCAG, -0.0749 E-score.

For AGGCAAGG, the binding signal was -0.274 E-score. The result for AGAAAAAT reads -0.124 E-score. The result for CACTTATA reads 0.00662 E-score.

In the case of CTCCCATA, the binding signal was 0.0813 E-score. Under GAATGAAA stands -0.157 E-score. Under CCCCCTTC stands 0.104 E-score. Under CCCGATTC stands 0.0319 E-score; under GGCAAACA, -0.24 E-score. For CAGACTCA, the binding signal is -0.153 E-score. In the case of CACTGATA, the binding signal is 0.404 E-score. As to AAGTTCGT, the binding signal is -0.333 E-score. Under TAGCACTA stands 0.0499 E-score; under ACCGACTC, 0.0656 E-score. Under ACAATAAT stands 0.0945 E-score; under AGTGCAAC, -0.0317 E-score.

ACATTCCA: the binding signal was -0.253 E-score. Under CAAAGGTG stands -0.00643 E-score; under AGTCTAGC, -0.209 E-score.

As to CACCCACC, the binding signal was -0.0957 E-score.

With CTCCACCC, the binding signal amounted to 0.0237 E-score.

Take CCGTAGCG: the binding signal is -0.199 E-score. The result for AGGCCTCA reads -0.186 E-score; that for GATAGAGC, -0.0719 E-score; that for ACGACAAT, -0.105 E-score. Under AGTGCGCC stands -0.294 E-score.

In the case of AGCCACAC, the binding signal worked out at 0.119 E-score. The result for CTCTTAGA reads -0.133 E-score; that for GATGATCA, 0.315 E-score; that for ATTGGCCA, -0.171 E-score.

With CAATCGAA, the binding signal came out at 0.0197 E-score.

As to AACGGCTC, the binding signal was 0.0218 E-score.

On to ACCGTACC, for which the binding signal turned out to be 0.014 E-score. Turning to GTCAGCGA, the binding signal was -0.143 E-score.

For CCTACAAA, the binding signal was -0.111 E-score. The result for AACAATCT reads 0.0515 E-score; that for AAAACACA, -0.191 E-score. With ACTGCCCA, the binding signal is -0.215 E-score. Under TATATAAA stands 0.197 E-score; under AAATATGT, -0.132 E-score. The result for GATCAAGC reads 0.312 E-score. Under CTGCCGCC stands -0.208 E-score. Regarding ACATTGAT, the binding signal came to 0.154 E-score. Take ATGTAAAC: the binding signal amounted to 0.128 E-score.

Consider CATGTGAA, for which the binding signal is -0.165 E-score. Under ATCAATGC stands 0.163 E-score. With AAGAAGGG, the binding signal is 0.115 E-score. Under ACGCAGTA stands 0.034 E-score; under AGATCACA, 0.255 E-score. CCCACCGA: the binding signal is -0.0724 E-score. Consider AAGATTTA, for which the binding signal is -0.0691 E-score. Under CCCTGTAC stands 0.0945 E-score; under GATCAAAC, 0.193 E-score.

ATAGGTAG: the binding signal stood at 0.0875 E-score. Turning to CTGTTCGC, the binding signal is 0.00536 E-score. As for AGCGACCA, the binding signal was -0.328 E-score. Under CCAAATCA stands -0.136 E-score. The result for ATTTGATG reads -0.0146 E-score; that for AAACGAGG, -0.124 E-score. The result for CTTGGCGA reads -0.0968 E-score; that for GCACGGTA, 0.122 E-score.

Take AAGGTCCG: the binding signal is -0.0596 E-score. Under ACTTTGGA stands -0.0601 E-score. With ACGCCCGC, the binding signal is -0.102 E-score. Consider ATCCAGGC, for which the binding signal is 0.123 E-score. Under AGCGTTAG stands -0.0882 E-score; under AAGCTTAA, -0.109 E-score.

Consider ATTGGGCC, for which the binding signal is -0.215 E-score.

Regarding ACAACGCA, the binding signal is -0.108 E-score. The result for AAGATTAG reads 0.0218 E-score; that for CCAGGAAC, -0.0778 E-score; that for CCAATATC, 0.369 E-score. On to ACTGGCAT, for which the binding signal was determined as 0.0418 E-score. The result for AAAGGTAT reads 0.337 E-score. Under ATCTCGGA stands 0.22 E-score; under GAGACTCC, -0.0466 E-score. Turning to ATCACATA, the binding signal stood at 0.274 E-score. Under GTTCATAA stands -0.0743 E-score; under AAGCCTCA, -0.297 E-score; under CAGGGAGA, 0.0903 E-score. Under GTGCACAC stands -0.0414 E-score; under GAATGTCA, -0.259 E-score; under ATTGAGGG, -0.121 E-score. Turning to ACTGCGGC, the binding signal was -0.274 E-score.

With AAGACGGG, the binding signal is 0.0984 E-score. The result for AAGGACCA reads -0.182 E-score; that for CTTAGTCC, -0.213 E-score. Under ATTTCTAA stands -0.231 E-score; under TATTTGCA, -0.0858 E-score.

As for ACAGTCGC, the binding signal was -0.246 E-score. The result for CAATTTTC reads -0.164 E-score; that for GGACCTCC, -0.335 E-score; that for ACTCCCTG, -0.136 E-score.

Regarding AAGCCGAT, the binding signal stood at 0.211 E-score. The result for GATCAATA reads 0.291 E-score; that for TGACGCCA, 0.00364 E-score; that for CAATGACA, 0.198 E-score. In the case of CAGTTTTC, the binding signal is -0.132 E-score.

Consider AACTTTCA, for which the binding signal was -0.304 E-score. Under TTCTGAAA stands -0.141 E-score; under CTATTTGA, -0.175 E-score.
